Among the data in the supplement of paper PMC10126150 are switch fluorescence ratio values, retold here.

Values marked as one replicate rest on one cluster of the flow cell; about a third of the high ones do not repeat.

This data set deals with ATP. The experiment in a line: switch fluorescence ratio, 500 uM ATP over buffer (Cy3 cluster intensity, sum of 5 cycles each) (fold (ratio)); higher = stronger signal-on switching upon ATP binding; sequences stand for … in TCGTCGGCAGCGTCAGATGTGTATAAGAGACAGTTTTTTTTTTTTTTTTTTTTTTTTT…TC. To be noted: aptamer strand: ATP DNA aptamer (quencher-CACCTGGGGGAGTATTGCGGAGGAAGG + anchor), 100 nM annealed; ATP concentration: 500 uM; one replicate. In outline:
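After annealing to 100 nM quencher-labelled ATP aptamer, Cy3-labelled switching-strand clusters on a modified Illumina MiSeq flow-cell were imaged in selection buffer. A second image followed after 15 min with 500 uM ATP at 22 °C, and five such buffer/ATP cycles were done, each separated by NaOH stripping and re-annealing. The fluorescence ratio, averaged per switch-domain sequence, is summed target-cycle over summed buffer-cycle Cy3 intensity per cluster, with clusters outside 100-1000 RFU excluded.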
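Also: ATP exposure 15 min at 22 °C before imaging.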

As for GGAATAGCAT, the switch fluorescence ratio is 1.03.

As for AGATGATGC, the switch fluorescence ratio is 1.01.

In the case of AGCTCCCGCA, the switch fluorescence ratio turned out to be 1.59.

As to AGGTGCACTC, the switch fluorescence ratio came to 1.03.

For the sequence AAAATTCTTG, the switch fluorescence ratio was 0.976.

For the sequence GAGTTGAACG, the switch fluorescence ratio turned out to be 0.944.

On to GCGGTATCGC, for which the switch fluorescence ratio stood at 0.983.

With TTAGTGTAGT, the switch fluorescence ratio turned out to be 1.03.

On to AGGAATCTCA, for which the switch fluorescence ratio turned out to be 1.01.

For ATCTCGTACG, the switch fluorescence ratio is 0.989.

Take ATGGCTCATG: the switch fluorescence ratio stood at 0.986.

As for ACTAATATG, the switch fluorescence ratio was 1.03.

With TACCCCCGGG, the switch fluorescence ratio was found to be 1.18.

Turning to TTAATCCCAA, the switch fluorescence ratio worked out at 1.08.

Regarding TCCCTGAGAG, the switch fluorescence ratio worked out at 0.979.

With TGGTTATCCG, the switch fluorescence ratio worked out at 0.973.

CTCCCTCTAT: the switch fluorescence ratio turned out to be 1.1.

Take TTCTTGCAAA: the switch fluorescence ratio is 1.06.

Take GTTCGTCCGC: the switch fluorescence ratio worked out at 3.27.

Turning to TAACTATGAC, the switch fluorescence ratio was 1.13.

On to TACCTGGGTT, for which the switch fluorescence ratio stood at 1.03.

For ATAGTGAAGC, the switch fluorescence ratio was found to be 0.975.

For the sequence CCAAGCTCGA, the switch fluorescence ratio was determined as 1.11.

With TTATTGTCGG, the switch fluorescence ratio is 0.963.

For TGACGGCAA, the switch fluorescence ratio worked out at 1.26.

In the case of CCCCGGTATC, the switch fluorescence ratio was 4.81.

In the case of TTCGAAGTCG, the switch fluorescence ratio is 1.04.

Consider TAGGTTCTGG, for which the switch fluorescence ratio was 0.978.

Consider GATATCTGAG, for which the switch fluorescence ratio worked out at 1.03.

Consider ATTACAGCTT, for which the switch fluorescence ratio is 0.978.

With ATAAAATCAA, the switch fluorescence ratio was 1.

Consider ACCGTAAATG, for which the switch fluorescence ratio worked out at 1.14.

For the sequence GGGTAGCCGC, the switch fluorescence ratio was 0.987.

Turning to GTGCGACTCC, the switch fluorescence ratio came out at 1.33.

On to CCTAATTCCA, for which the switch fluorescence ratio is 0.968.

AAAACCACTC: the switch fluorescence ratio stood at 1.24.

With TGAACAGTA, the switch fluorescence ratio came to 1.01.

Regarding GATTATTATG, the switch fluorescence ratio was 1.02.

Take GGCCAACAGA: the switch fluorescence ratio was determined as 0.98.

For CAAGCACGGT, the switch fluorescence ratio turned out to be 1.25.

In the case of AGGGATATGT, the switch fluorescence ratio is 1.

On to GTGCAGAATT, for which the switch fluorescence ratio was determined as 0.99.

Take AGTATTAAGT: the switch fluorescence ratio was determined as 0.971.

Turning to GTCCGAGGAA, the switch fluorescence ratio came to 1.05.

Take AAGTACGGGC: the switch fluorescence ratio is 1.15.

CTTACGCAG: the switch fluorescence ratio was found to be 1.05.

As to TTTCCCCCAG, the switch fluorescence ratio amounted to 0.984.

Take TCGCTTGGC: the switch fluorescence ratio is 1.05.

With TTGCAATGCG, the switch fluorescence ratio is 2.16.

With TTAACCACGC, the switch fluorescence ratio worked out at 1.07.

Consider TAACTTTGTT, for which the switch fluorescence ratio was 0.978.

GGCGCGTACT: the switch fluorescence ratio came out at 1.07.

For TGAGAGCCCG, the switch fluorescence ratio amounted to 1.01.

Consider CTCAGTTCGT, for which the switch fluorescence ratio came out at 1.02.

Consider GAGTCGTAAG, for which the switch fluorescence ratio worked out at 1.02.

Take ATTTATCAGA: the switch fluorescence ratio was 1.

As for TCGAGGCTAT, the switch fluorescence ratio amounted to 4.57.

Turning to ATTGTACCTC, the switch fluorescence ratio came to 1.03.

As for TAAAAGGAAC, the switch fluorescence ratio came to 1.06.

As for AGCGCGGTTA, the switch fluorescence ratio turned out to be 0.951.

Regarding AATGTAAATT, the switch fluorescence ratio came out at 0.995.

TCGATTTGCA: the switch fluorescence ratio was 0.973.

As to AGGTAATCG, the switch fluorescence ratio was 1.02.

On to GATTCAGGCT, for which the switch fluorescence ratio is 0.996.

CTAAATAAC: the switch fluorescence ratio is 1.21.

For the sequence AATGCTTGGT, the switch fluorescence ratio amounted to 1.02.

Take GATACGGT: the switch fluorescence ratio amounted to 1.03.
